In PubChem BioAssay AID493208 (National Center for Advancing Translational Sciences (NCATS), 2011):
Out of some 44,000 compounds screened, about 340 (0.77%) were called active. Roughly 5% stayed inconclusive and do not appear here. Calls follow the shape of the dose curve; as a rule, active = well fitted inhibition curve with a large enough effect; inconclusive = small, poorly fitted or top-dose-only effect; inactive = flat fitted curve, though single readings scatter. This is one part of the list.

assay: Acumen qHTS Assay for Inhibitors of the mTORC1 Signaling Pathway in MEF (Tsc2-/-, p53-/-) Cells: Sytravon; conditions: phospho-rpS6 immunofluorescence/PI, 24 h; series mostly up to 38.3 µM; activity change, negative = inhibition: at the top concentration;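 also: plate controls were DMSO for no effect and rapamycin for full effect; nearly all actives have a fitted effect of over 50% in size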
In short: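 Compounds act on Tsc2-/-, p53-/- fibroblasts carrying an empty vector for 24 h before fixation and dual staining for phospho-S6 and DNA (propidium iodide). Values are percentages of cells above a rapamycin-defined pS6/PI threshold.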

Activity change, negative = inhibition, inactive:
COc1ccc(-c2cn3nc(N4CCCC(C(=O)NCCCOC(C)C)C4)sc3n2)cc1 (stereo unspecified) 2.79%
CCCN(CCC)c1cc(C)nc2nc(-c3ccc(Cl)cc3)nn12 4.31%
Cc1ccc(C(=O)CSc2nc(-c3ccccc3)nc3c2CCCC3)cc1C 7.61%
CC1=C(C(=O)Nc2ccc(C)cc2C)C(c2cccs2)n2nc(SCc3ccc(Cl)cc3)nc2N1 (stereo unspecified) 0.474%
Cc1cc(Oc2nc3ccccn3c(=O)c2/C=C(\C#N)c2nc3ccccc3s2)ccc1Cl 4.43%
COc1ccc(-c2csc3ncnc(Nc4cccc(F)c4)c23)cc1 0%
CC(=O)c1ccc(NC(=O)CC2Sc3ccccc3NC2=O)cc1 (stereo unspecified) -7.32%
Cc1nc2nc(NC(=O)C(C)C)[nH]n2c(=O)c1Cc1ccccc1 -1.14%
Cc1ccc(NC(=O)C2CCN(C(=O)c3cnn(-c4ccccc4)c3-n3cccc3)CC2)cc1Cl 6.05%
COc1cc(Cl)c(C)cc1NC(=O)CCn1cnc2onc(-c3ccc(F)cc3)c2c1=O -2.83%
CC(CNC(=O)Cn1c(-c2cccs2)cc2cc(Cl)ccc21)c1ccccc1 (stereo unspecified) 0.789%
COCC(C)NS(=O)(=O)c1ccc(N2CCCCS2(=O)=O)cc1 (stereo unspecified) 0%
CCOC(=O)c1ccc(NC(=O)c2sc3nc4n(c(=O)c3c2C)CCC4)cc1 6.34%
CCN1C(C(=O)c2ccccc2)=C(NC(=O)c2ccc(Cl)cc2)c2ccccc2S1(=O)=O -9.44%
Cc1ccc2c(CC(=O)Nc3c(C(=O)c4ccc(F)cc4)oc4ccccc34)coc2c1C 3.11%
CC(C)c1ccc(NC(=O)C(Cc2ccccc2)n2cccc2)cc1 (stereo unspecified) -7.36%
CCOc1ccc(NC(=O)Cn2c(=O)n(CC(=O)NCCc3ccccc3)c(=O)c3sccc32)cc1 -24%
Cc1ccc(C)c(S(=O)(=O)c2cn(Cc3ccccc3)c3cc(N4CCCC4)c(F)cc3c2=O)c1 0.0724%
CC(=O)N1CCCc2cc(S(=O)(=O)Nc3ccc(OC(F)(F)F)cc3)ccc21 -24.8%
Cc1ccc(-n2ccn(CC(=O)c3ccc(F)cc3)c(=O)c2=O)cc1C 8.94%
COc1cccc(C(=O)NCCc2sc(-c3cccc(C)c3)nc2C)c1 -1.54%
COc1cccc(NC(=O)c2oc3ccccc3c2NC(=O)c2ccc(OC(C)C)cc2)c1 -5.08%
CCOC(=O)c1ccc(N2C(=O)c3[nH]nc(-c4ccccc4)c3C2c2ccc(C(C)C)cc2)cc1 (stereo unspecified) -1.24%
COc1ccc2c(CNCCc3ccco3)c(C(=O)O)n(Cc3ccc(F)cc3)c2c1 -6.98%
CCn1cc(C(=O)NCc2ccc(Cl)cc2)c(=O)c2cc(S(=O)(=O)N3CCc4ccccc4C3)ccc21 -1.3%
CC(=O)Nc1nonc1-c1nnc(SCC(=O)Nc2c(C)cccc2C)n1-c1ccccc1 1.54%
